Here are results for 55 compounds from article PMC4336329 (PLoS ONE, 2015).

Molecules are shown by their SMILES. Hit rate of the full screen: of about 310,000 compounds, about 2,200 (0.71%) showed an effect of 50% or more. Effects have a minus sign here. This is one part of the list.

In this experiment the target is human ether-à-go-go-related gene (hERG) potassium channel (human, UniProt Q12809). The experiment can be described thus: primary screen, population patch clamp on CHO cells stably expressing hERG.
Sequence of human ether-à-go-go-related gene (hERG) potassium channel (Q12809 whole entry, looked up): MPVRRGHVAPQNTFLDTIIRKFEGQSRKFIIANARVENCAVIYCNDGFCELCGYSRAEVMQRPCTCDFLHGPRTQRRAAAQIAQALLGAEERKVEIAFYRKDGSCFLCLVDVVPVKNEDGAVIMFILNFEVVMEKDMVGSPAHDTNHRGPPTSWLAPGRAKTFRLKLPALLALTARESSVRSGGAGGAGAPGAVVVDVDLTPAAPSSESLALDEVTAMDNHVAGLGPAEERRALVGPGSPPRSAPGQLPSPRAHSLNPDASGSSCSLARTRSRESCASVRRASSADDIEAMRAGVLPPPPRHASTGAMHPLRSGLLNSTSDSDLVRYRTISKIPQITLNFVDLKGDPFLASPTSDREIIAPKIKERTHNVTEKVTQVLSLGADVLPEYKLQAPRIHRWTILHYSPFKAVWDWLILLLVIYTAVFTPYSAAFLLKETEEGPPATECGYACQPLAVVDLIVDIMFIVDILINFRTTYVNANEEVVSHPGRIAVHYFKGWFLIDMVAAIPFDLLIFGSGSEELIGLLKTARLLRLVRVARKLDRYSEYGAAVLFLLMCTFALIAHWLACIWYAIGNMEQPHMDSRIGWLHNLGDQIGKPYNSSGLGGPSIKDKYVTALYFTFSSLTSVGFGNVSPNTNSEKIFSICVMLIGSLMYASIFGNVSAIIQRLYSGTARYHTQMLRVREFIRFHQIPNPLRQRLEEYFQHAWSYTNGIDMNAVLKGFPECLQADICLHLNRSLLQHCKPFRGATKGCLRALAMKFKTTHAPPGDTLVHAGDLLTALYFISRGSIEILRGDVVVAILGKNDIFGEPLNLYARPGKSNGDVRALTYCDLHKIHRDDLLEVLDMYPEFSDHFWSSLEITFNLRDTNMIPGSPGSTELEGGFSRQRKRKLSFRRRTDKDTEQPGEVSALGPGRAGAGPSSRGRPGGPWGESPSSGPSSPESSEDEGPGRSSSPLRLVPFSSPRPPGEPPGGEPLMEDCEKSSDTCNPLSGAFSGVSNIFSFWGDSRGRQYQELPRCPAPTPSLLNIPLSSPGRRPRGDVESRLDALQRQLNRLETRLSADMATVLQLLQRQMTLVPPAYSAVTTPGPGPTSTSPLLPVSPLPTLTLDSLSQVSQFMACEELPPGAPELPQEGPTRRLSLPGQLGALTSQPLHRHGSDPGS
In the case of `CC(C)(C)c1ccc(S(=O)(=O)Nc2noc3ccccc23)cc1`, the “hERG current change (%, negative = inhibition) at 1uM” value amounted to 11.8%.

Take `CCOC(=O)c1c(-c2ccco2)csc1N`: the “hERG current change (%, negative = inhibition) at 1uM” value is 5.11%. Then `CN(Cc1ccccc1)S(=O)(=O)c1ccc(Cl)c(C(=O)NCc2ccncc2)c1`, with 0.805%; and `O=C(Nc1ccnn1C1CCN(C(=O)c2cccc(Cl)c2)CC1)C1CC1`, with 8.23%; and `O=C(CN(c1ccccc1)S(=O)(=O)c1ccc(Cl)cc1)Nc1ccccc1C(=O)N1CCCC1`, with -14%.

As for `CN(C)CCCOC(=O)c1sc2ccccc2c1Cl.Cl`, the “hERG current change (%, negative = inhibition) at 1uM” value is -17.5%. The value for `CN(CC(=O)Nc1ccccc1F)CC(=O)Nc1ccccc1Br` was 13.1%; that for `COc1ccc(CNC(=O)CCCCCNC(=O)N2CCn3c2nc2ccccc23)cc1` was 2.86%; that for `CN1C2CCC1CC(OC(=O)CCN1CCCC1)C2` (stereo not shown) was 4.97%.

Consider `COc1ccc2nc(C)cc(SCC(=O)O)c2c1`, for which the “hERG current change (%, negative = inhibition) at 1uM” value is listed as 0.584%.

For `Cc1ccc(Cl)cc1N1CCN(C(=O)C2CCN(S(=O)(=O)c3cnc[nH]3)CC2)CC1`, the “hERG current change (%, negative = inhibition) at 1uM” value is 12.5%.

Take `CC(C)COC(=O)c1ccccc1N1C(=O)C2C3CCC(C3)C2C1=O` (stereo not shown): the “hERG current change (%, negative = inhibition) at 1uM” value is listed as 6.9%. Turning to `Cc1ccc(NC(=O)c2ccc(Cl)c(S(=O)(=O)N3CCCCCC3)c2)nc1`, the “hERG current change (%, negative = inhibition) at 1uM” value is on record as -7.77%.

For the compound `CC(=O)c1ccc(N2C(=NC(=O)C3CCCO3)SC3CS(=O)(=O)CC32)cc1` (stereo not shown), the “hERG current change (%, negative = inhibition) at 1uM” value is -4.64%. Then `Cc1ccc(C)c(C(=O)C(C)Sc2nc3nn(-c4ccccc4)c(=O)c-3c3n2CCCCC3)c1` (stereo not shown), with 8.88%. The value for `Oc1ccc(C[C@H]2CNC(=S)N2CCc2cc(C(F)(F)F)cc(C(F)(F)F)c2)cc1` was 14.8%; that for `COc1ccc(C(=O)NCCc2ccccc2)cc1OC` was 11.5%; that for `COc1cccc(-c2ccc(NC(=O)C3CCCN(Cc4ccco4)C3)cc2)c1` (stereo not shown) was 7.36%. The value for `Cc1ccc(S(=O)(=O)N2CCCC2C(=O)n2nc(C)cc2C)cc1` (stereo not shown) was 3.46%; that for `COC(=O)c1cc(NCc2ccccc2F)ccc1N1CCOCC1` was 6.11%; that for `CC(C)c1ccc(S(=O)(=O)N2CCN(C(=O)C3CCN(C(=O)c4ccc(F)cc4)CC3)CC2)cc1` was 0.715%.

`CCOC(=O)c1c(O)c2cccc3c2n(c1=O)CC3`: the “hERG current change (%, negative = inhibition) at 1uM” value amounted to 15.9%. For `CO.COc1ccc(C(=O)Nc2ccc(/C(C)=N/NC(=O)c3ccccc3O)cc2)cc1OC`, the “hERG current change (%, negative = inhibition) at 1uM” value stood at 15.3%. Turning to `CSCCC(NS(=O)(=O)c1ccccc1F)C(=O)N1CCCCCCC1` (stereo not shown), the “hERG current change (%, negative = inhibition) at 1uM” value came to 7.12%.

Consider `COc1ccc(NC(=O)c2ccccc2F)cc1Cl`, for which the “hERG current change (%, negative = inhibition) at 1uM” value was determined as 10.4%. Then `CC1(C)C=Cc2c(ccc3c2OC[C@H](c2ccc(O)cc2O)C3)O1`, with 11.6%. Consider `Cc1ccc(C(=O)CSc2nc(C(C)C)nc3ccccc23)cc1`, for which the “hERG current change (%, negative = inhibition) at 1uM” value came out at 14.2%. On to `O=C(N=C1N=C2C=CC=CN2Cc2ccccc21)c1ccc(S(=O)(=O)N2CCCC2)cc1`, for which the “hERG current change (%, negative = inhibition) at 1uM” value is on record as 10.7%. For the compound `O=C(COC(=O)CNC(=O)c1ccccc1F)Nc1ncc(Cl)cc1Cl`, the “hERG current change (%, negative = inhibition) at 1uM” value was 10.9%. The value for `N/C(=N\c1nc2ccccc2o1)NC(=O)c1cccc(Cl)c1` was 6.33%. Then `CCC1Sc2ccc(S(=O)(=O)Nc3cc(OC)cc(OC)c3)cc2NC1=O` (stereo not shown), with 6.13%. As to `COC(=O)c1scc(S(=O)(=O)C(C)(C)C)c1N`, the “hERG current change (%, negative = inhibition) at 1uM” value worked out at 15.8%. Then `COc1ccc(-c2csc(COC(=O)C(C)(C)C)n2)cc1`, with 12.1%.

Turning to `O=C(Nc1ccc(S(=O)(=O)Nc2nccs2)cc1)c1ccc(F)c(S(=O)(=O)N2CCOCC2)c1`, the “hERG current change (%, negative = inhibition) at 1uM” value was -10.7%. On to `Cc1csc(NC(=S)NC(=O)c2ccccc2)n1`, for which the “hERG current change (%, negative = inhibition) at 1uM” value is given as 13%. The value for `Cc1nc(NC(=O)COC(=O)/C=C/c2ccco2)c(Cl)cc1Cl` was 12.1%.

Take `CS(=O)(=O)CCC(C(=O)OCc1ccc(Br)cc1)N1C(=O)c2ccccc2C1=O` (stereo not shown): the “hERG current change (%, negative = inhibition) at 1uM” value was 10%. Then `CCn1c(SCC(=O)Nc2ccccc2OC)nnc1-c1cnccn1`, with 13.1%; and `COc1cc(OC)c(OC)cc1CNC1CCCCCC1`, with 1.12%; and `CC(C)(C)NS(=O)(=O)c1ccc(CCC(=O)N2CCCCC2)cc1`, with 13.6%.

Take `CCOc1cccc(NC(=O)C2CC(=O)N(C)C(=Nc3ccccc3)S2)c1` (stereo not shown): the “hERG current change (%, negative = inhibition) at 1uM” value is listed as 9.15%. Then `COc1cccc(N2CC34C=CC(O3)C(C(=O)O)C4C2=O)c1` (stereo not shown), with 13.7%; and `CCC/C(=C1/c2ccccc2C(=O)N1c1ccccc1)c1ccc2c(c1)OCCO2`, with 14.8%; and `COc1cccc(/C=N/NC(=O)c2ccc(N3CCCC3=O)cc2)c1`, with -1.29%. On to `CC(SC1=NCCN1S(=O)(=O)c1ccc(F)cc1)c1ccccc1` (stereo not shown), for which the “hERG current change (%, negative = inhibition) at 1uM” value turned out to be 11.9%. The value for `O=C(NCC(=O)N(c1ccccc1)C(C(=O)NC1CCCC1)c1ccncc1)c1cccs1` (stereo not shown) was 13.1%; that for `CC1(C)O[C@@H]2[C@H](O1)[C@@H](COS(=O)(=O)[O-])O[C@H]2n1cnc2c(N)ncnc21.[K+]` was 14.6%. Then `CCCCn1c(N)c(N(CC(C)C)C(=O)CC(NC(=O)c2ccccc2)c2ccccc2)c(=O)[nH]c1=O` (stereo not shown), with 10.9%. Then `COc1nc2ccccc2c(=O)n1-c1ccc(C)cc1`, with 7.4%; and `Cc1ccccc1N1CCN(C2CCCN(C(=O)CCc3c(C)noc3C)C2)CC1` (stereo not shown), with -29.2%. Consider `O=C(c1cccs1)N1CCN(S(=O)(=O)N2CCOCC2)CC1`, for which the “hERG current change (%, negative = inhibition) at 1uM” value is -1.4%. As for `COc1ccc(N2CCN(C(=O)c3cn(C4CCCC4)c(=O)c4c3c3ccccc3n4C)CC2)cc1`, the “hERG current change (%, negative = inhibition) at 1uM” value is listed as 5.81%. On to `COc1cccc(/C=C/C(=O)N2CCN(S(=O)(=O)c3ccccc3)CC2)c1OC`, for which the “hERG current change (%, negative = inhibition) at 1uM” value is on record as -0.35%.

Regarding `O=C(N/N=C1/CCS(=O)(=O)c2ccc(F)cc21)c1cccnc1`, the “hERG current change (%, negative = inhibition) at 1uM” value came out at 13.7%. The value for `CN1CCN(c2cc3c(c4c2[nH]c2ccccc24)C(=O)CC(C)(C)C3)CC1.Cl` was 9.45%.
